This assay concerns 188146-221-R-J1-PDC complex spheroid viability. Nature of the assay: Anticancer human tumor 188146-221-R-J1-PDC patient-derived colon adenocarcinoma cell line growth inhibition [POLQ]. The note with it: stronger effect = lower value. Here is the method: Multicellular complex tumor spheroid response to Polymerase (POL) inhibitors (novobiocin, ART-558, RP6685) in combination with a variety of drugs and investigational agents in selected tumor cell lines
The POL inhibitors (novobiocin, ART-558, and RP6685) were evaluated both individually and in combination with standard of care and investigational anticancer small molecules within a complex spheroid model of solid tumors. . Complex spheroids include a stromal component modeled by human endothelial cells (HUVEC) and fibroblasts modeled by human mesenchymal stem cells (MSCs). The concentration ranges selected for each drug and investigational agent were based upon clinically achievable concentrations if the clinical Cmax of the agent was known.
Compounds. […] If the clinical Cmax for an agent had not been determined, the highest concentration tested was 10 microM, except for SN-38, which was tested at a high concentration of 1 microM. […]

Structures are written as SMILES. The source holds more than one record for some entries. Only these are listed. The source may hold further records. Results that share an entry are repeats in other runs, samples, wells, individuals or studies. Signs of the kind (2×) count equal records among those shown. A date in brackets names the month of the test.
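Further: spheroids exposed to compounds for seven days; 100% = DMSO vehicle control viability.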

Turning to `COC1C(OC(N)=O)C(O)C(Oc2ccc3c(O)c(NC(=O)c4ccc(O)c(CC=C(C)C)c4)c(=O)oc3c2C)OC1(C)C` (configuration not stated), the viability, T/C (compound alone 0.1 µM) was 90.3, 107, 103 (2×), 102, 101 (3×), 118, 97.3, 104, 98.2% (2×).
As to `Cc1cccc(N(C)C(=O)C2C(O)CCN2c2nc(C)cc(C(F)(F)F)c2C#N)c1` (configuration not stated), the viability, T/C (compound alone 0.0316 µM) is 101 (2×), 102, 98.7, 100, 96.6, 107, 109% [2023-10] and 101, 91.1, 81.1, 96.1, 106% [2023-11].

For the origin of these results see PubChem BioAssay AID1963851 (Molecular Pharmacology Branch, DTP, NCI, 2024).
